Measured values as given in the supplement of paper PMC10126150.
Values marked as one replicate rest on one cluster of the flow cell; about a third of the high ones do not repeat.

system: ATP; assay: switch fluorescence ratio, 500 uM ATP over buffer (Cy3 cluster intensity, sum of 5 cycles each) (fold (ratio)); higher = stronger signal-on switching upon ATP binding; sequences stand for … in TCGTCGGCAGCGTCAGATGTGTATAAGAGACAGTTTTTTTTTTTTTTTTTTTTTTTTT…TC; details: aptamer strand: ATP DNA aptamer (quencher-CACCTGGGGGAGTATTGCGGAGGAAGG + anchor), 100 nM annealed; ATP concentration: 500 uM; one replicate
In short: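 Imaging in selection buffer was followed by imaging after 15 min with 500 uM ATP at 22 °C, for Cy3-labelled switching-strand clusters annealed to 100 nM quencher-labelled ATP aptamer on a modified Illumina MiSeq flow-cell. Five of these buffer/ATP cycles ran, separated by NaOH stripping and re-annealing. The fluorescence ratio per cluster is summed target-cycle over summed buffer-cycle Cy3 intensity, averaged per switch-domain sequence; clusters outside 100-1000 RFU were removed.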
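Also: ATP exposure 15 min at 22 °C before imaging.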

Sequence | switch fluorescence ratio
TGCACGGCTC | 1.14
TGCACGTGGG | 0.996
TGCACTCGGT | 0.979
TGCACTTTGG | 1.05
TGCAGCTTTT | 1.18
TGCATAAGG | 0.993
TGCATATTCC | 1.08
TGCATCTCTT | 2.59
TGCATGAGAA | 0.975
TGCATGCGAT | 1.02
TGCATGTACT | 1.2
TGCATTCTTG | 0.999
TGCCAAGCAG | 1.04
TGCCAATCCA | 1.01
TGCCACTGCA | 1.03
TGCCAGCCGT | 1.02
TGCCAGCGGT | 0.996
TGCCATTTAG | 0.971
TGCCCACTGC | 0.922
TGCCCCGTCC | 1.05
TGCCCGACCG | 1.07
TGCCCGATTG | 1.02
TGCCCGCCTC | 1.16
TGCCCGGT | 0.998
TGCCCTAGTA | 1.02
TGCCGAAAAA | 1.24

Sequence | switch fluorescence ratio
TGCCGCAAGA | 2.19
TGCCGGCATA | 1.01
TGCCGGCTGT | 0.977
TGCCGGGATT | 0.991
TGCCGGGTGC | 1.06
TGCCTGCCAA | 1.06
TGCCTGGGAT | 0.967
TGCCTGGGGG | 0.99
TGCCTGGTGG | 1
TGCCTTAGT | 1.01
TGCCTTCTTA | 1.06
TGCCTTGCGC | 0.935
TGCCTTTAAA | 1.02
TGCCTTTACA | 0.981
TGCGAATCGG | 0.991
TGCGACGTTT | 0.975
TGCGACTGTG | 1.07
TGCGAGCAGG | 1.02
TGCGAGCGAA | 0.983
TGCGAGTCTG | 0.974
TGCGATTGAT | 1.01
TGCGCACACC | 1.25
TGCGCAGATG | 0.958
TGCGCATGAA | 1.02
TGCGCGAACT | 0.987
TGCGCGATAT | 3.75

Sequence | switch fluorescence ratio
TGCGGAAGGT | 1.01
TGCGGAGGTG | 1.06
TGCGGCTATT | 1.05
TGCGGGGACA | 1.02
TGCGGTAAGC | 1
TGCGGTAATC | 1.09
TGCGGTAGCT | 1.04
TGCGTAGCTT | 0.951
TGCGTAGTTG | 0.984
TGCGTATCTT | 1.05
TGCGTATGTG | 0.953
TGCGTCCGTA | 1.05
TGCGTCTTAG | 0.946
TGCGTGGAGG | 1.06
TGCGTTACAC | 1.06
TGCGTTTTAG | 1.04
TGCGTTTTGG | 1.03
TGCTAATTTT | 0.975
TGCTACATTT | 1.03
TGCTACGAAC | 1.6
TGCTACGGGG | 1.08
TGCTCAATCT | 0.982
TGCTCCACAC | 2.19
TGCTCTAAGC | 1
TGCTCTTTCG | 0.938
